# According to the supplement of paper PMC10441789:
# This is one part of the list. Antibody binding of pooled human sera (four to six donors per pool; dilution not stated) to peptides of the Trypanosoma cruzi antigen TSSA on microarrays. Quantile-normalised fluorescence in arbitrary units, mean of duplicate arrays; higher = more binding. No active / inactive call. The uninfected pools are read here as the healthy donors of the same country. The strongest signals lie near the top of the scale (about 60,000).
# Columns and labels:
# Assay in all cases: antibody binding signal (normalised fluorescence) (arbitrary fluorescence units); higher = stronger serum antibody binding to peptide
# [1] = tested on: pooled sera of chronic Chagas disease patients, Argentina
# Procedure: (§1)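 Microarray of 15-residue peptides over residues 30-55 of Trypanosoma cruzi TSSAII, each with 1 to 10 substitutions at naturally variable positions, probed with one serum pool per country.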
# [2] = tested on: pooled sera of chronic Chagas disease patients, Bolivia
# Procedure: as §1
# [3] = tested on: pooled sera of chronic Chagas disease patients, Brazil
# Procedure: as §1
# [4] = tested on: pooled sera of chronic Chagas disease patients, Colombia
# Procedure: as §1
# [5] = tested on: pooled sera of chronic Chagas disease patients, Mexico
# Procedure: as §1
# [6] = tested on: pooled sera of chronic Chagas disease patients, USA
# Procedure: as §1
# [7] = tested on: pooled sera of uninfected people, Argentina
# Procedure: as §1
# [8] = tested on: pooled sera of uninfected people, Bolivia
# Procedure: as §1
# [9] = tested on: pooled sera of uninfected people, Brazil
# Procedure: as §1
# [10] = tested on: pooled sera of uninfected people, Colombia
# Procedure: as §1
# [11] = tested on: pooled sera of uninfected people, Mexico
# Procedure: as §1
# [12] = tested on: pooled sera of uninfected people, USA
# Procedure: as §1
Sequence,antibody binding signal [1],antibody binding signal [2],antibody binding signal [3],antibody binding signal [4],antibody binding signal [5],antibody binding signal [6],antibody binding signal [7],antibody binding signal [8],antibody binding signal [9],antibody binding signal [10],antibody binding signal [11],antibody binding signal [12]
PSGKDNKPATGGAPS,3860,1330,8100,4260,3840,8090,881,1290,150,139,152,156
TDNKTATGEAPSQPG,16000,32100,40500,248,259,21600,159,288,343,122,107,116
NKPAAGGAPSPPGAS,215,410,5600,1580,235,1290,755,1120,329,666,170,1700
PPSGTDNKPATGEAP,46600,46700,49700,6070,4620,40700,1860,848,598,512,759,404
SGTDKKPATGEAPSP,50600,52300,47200,4590,429,40300,933,690,242,470,2560,310
EKKPATGGTPSPSGA,1370,404,569,3190,765,850,413,864,954,240,176,710
NKPATGGAPSPPGAS,637,2580,6990,319,332,1980,847,1990,284,918,253,1810
TISTPPSGTDKKAAT,38700,5410,34700,8280,39400,4680,558,148,222,193,2640,257
EKKAAAGGAPSQPGA,288,264,1870,4240,464,544,173,591,340,174,163,543
GKEKKAATGGTPSPS,2750,297,416,2310,5180,3000,135,91.2,186,221,75.7,112
GKEKKPAAGGTPSQS,800,166,239,1790,885,1150,127,96.7,521,94.5,116,287
TDKKPATGEAPSPPG,42600,47300,45700,402,194,34200,852,544,342,194,226,136
EKKPAAGETPSQPGA,1070,1510,34900,400,286,3230,139,1320,256,628,275,866
PPSGKDKKAATGETP,1320,479,1190,1300,17200,6720,529,439,120,364,120,158
KPATGGTPSQPGASS,563,268,2470,763,405,269,309,485,216,193,292,161
KEKKAAAGGAPSQPG,156,213,237,1860,193,288,104,83.4,131,83,85.1,108
KTATGGAPSPPGASS,592,186,309,404,408,627,405,120,129,119,93.3,152
KEKKTATGGAPSPSG,434,172,251,1180,316,328,205,146,90.1,79.3,122,99.5
ENKTATGEAPSPSGA,14100,34100,18700,194,228,24300,161,121,253,144,109,103
TDNKTATGEAPSQSG,15300,31500,24500,154,327,22900,190,302,241,169,158,119
DKKAAAGETPSQPGA,808,1570,31300,360,240,2330,109,327,211,581,186,166
KEKKAAAGGAPSPPG,142,179,152,2310,200,515,99.3,87.6,119,98.4,81.2,91
TSSTPPSGTENKAAA,49300,38900,54300,402,3540,36900,5530,993,319,878,318,1360
GKDNKAAAGETPSQP,1390,756,31900,2360,2430,2250,174,349,96,197,91.7,112
TSSTPPSGKEKKAAA,15900,324,511,747,26600,568,652,407,141,252,96.8,253

Sequence,antibody binding signal [1],antibody binding signal [2],antibody binding signal [3],antibody binding signal [4],antibody binding signal [5],antibody binding signal [6],antibody binding signal [7],antibody binding signal [8],antibody binding signal [9],antibody binding signal [10],antibody binding signal [11],antibody binding signal [12]
KENKPATGETPSQPG,39700,21400,43600,308,682,26400,402,900,302,266,1720,237
TPPSGTEKKAATGEA,32200,16600,27700,244,9730,3070,745,256,554,465,229,135
PSGKENKTAAGEAPS,10500,3020,11700,12100,10400,12800,7240,3570,225,802,497,254
SSTPPSGTEKKTAAG,36800,5580,27600,369,7510,4400,891,321,128,134,121,177
PSGTENKTATGGTPS,47300,26500,43700,2290,2890,9250,1280,634,597,382,825,424
SGTDNKTAAGGAPSP,240,490,41500,6180,609,667,256,678,1820,293,269,324
TPPSGKDKKAAAGEA,1530,485,629,695,30100,793,209,402,109,209,78.3,102
TEKKPATGEAPSPSG,46200,49800,46600,370,338,36800,708,463,462,262,296,587
TPPSGKENKPAAGGT,33000,5410,10600,1040,14700,14300,4800,2360,859,566,283,439
TEKKAATGEAPSPSG,23000,36900,26800,317,510,24300,633,152,237,602,184,289
TPPSGKENKAATGGA,28700,2180,2470,919,4210,3170,3530,1450,140,582,224,582
DKKTAAGEAPSQPGA,5230,11400,36500,380,467,5650,312,249,160,1340,682,166
TPPSGKDNKTAAGGT,1370,274,1570,2290,33400,3740,303,404,850,216,107,186
KENKAATGETPSQPG,6400,3710,41800,341,333,12600,199,457,233,263,144,292
TISTPPSGTDKKPAT,38100,11900,44600,11000,51300,8110,663,183,354,362,5010,449
TEKKAATGGTPSQPG,934,418,1250,2360,1290,2620,475,159,817,1370,559,259
KENKPATGEAPSQPG,49700,44800,53000,400,847,45800,1060,899,305,219,246,178
GTDNKPATGETPSQS,37400,32400,44200,1160,241,28400,239,685,581,134,1750,119
GTDNKTAAGGTPSQP,1260,977,22300,5210,409,1430,365,571,2690,192,2840,151
KDKKAATGGAPSQPG,428,200,1020,232,605,418,266,102,108,192,85.3,121
EKKAATGETPSQPGA,4510,2230,40400,359,435,11700,625,1390,249,957,391,1060
PSGTEKKTATGEAPS,17400,21200,13700,1430,1600,22500,413,346,416,211,267,436
GKDNKAAAGGTPSPS,290,213,222,1460,819,1090,138,320,656,179,85.6,101
GKENKTATGGTPSPS,2870,416,7830,5540,5100,13500,381,123,133,187,157,109
SGKDNKPATGGAPSP,1730,914,11100,1390,1140,3370,504,1180,138,405,187,159
